Among all 340,000 compounds or so, about 530 (0.16%) were called active. Inconclusive means that the source gave no clear call. Such entries were picked first, then a sample of the others. Rule as the data show it: active = activity change below about -80%; inconclusive = between about -30% and that limit; inactive = weaker than that.
assay: Small Molecules that selectively kill Giardia lamblia: qHTS; details: Giardia lamblia trophozoite viability; at 7.66 µM; stronger effect = lower value;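 also: parasites exposed to compound for two days anaerobically before the ATP read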
Summary of the method: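 Luminescent ATP signal served as the viability read-out, measured 15-30 min after adding ATP detection reagent to trophozoites that had been incubated with compounds for 48 hrs at 37 deg C anaerobically at 100 cells/well.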
% is scaled to controls: 0 for no effect and ±100 for the full control effect.

| SMILES | activity change |
| --- | --- |
| CCc1nnc(NC(=O)c2cc(-c3ccccn3)nc3ccc(Br)cc23)s1 | inconclusive: -32.5% [inhibitor] |
| CC1(C)Cc2c(sc(NC(=O)c3ccc(C(=O)c4ccccc4)cc3)c2C#N)C(C)(C)N1 | inactive: 3.32% |
| COc1cc(/C=N/NC(=O)c2ccc(-c3ccccc3)cc2)cc(OC)c1OC | inactive: 22.5% |
| CN(C(=O)c1ccc(N2CCCCC2)c([N+](=O)[O-])c1)C1CCS(=O)(=O)C1 (configuration not stated) | inconclusive: -50.1% [inhibitor] |
| C#CCOCCOCCOCCNc1nc(N2CCN(C(=O)C([C@@H](C)O)n3cc([C@@H](N)CCCCN)nn3)CC2)nc(N2CCN(C(=O)[C@H](CCCCN)n3cc([C@@H](N)CC(N)=O)nn3)CC2)n1 (some centres not stated) | inconclusive: -36.1% [inhibitor] |
| COc1ccc(CCC(=O)NCc2cccc(C(F)(F)F)c2)cc1 | inconclusive: -34.3% [inhibitor] |
| CC(C)(C)c1n[nH]c2c1CCCC2 | inactive: 4.45% |
| CCN(CC)S(=O)(=O)c1ccc(C(=O)NCCCn2ccnc2)cc1 | inconclusive: -31.2% [inhibitor] |
| COc1cccc(-c2nc(-c3ccccc3)c(-c3ccccc3)[nH]2)c1OCC(=O)O | inconclusive: -44.2% [inhibitor] |
| CCc1ccc(C(=O)COC(=O)CNC(=O)COc2ccccc2)cc1 | inconclusive: -32.8% [inhibitor] |
| COc1cccc(-c2nnc(NC(=O)C(C)C)o2)c1 | inconclusive: -36.3% [inhibitor] |
| COc1cccc(C(=O)N2CCN(C(=O)Cc3ccccc3)CC2)c1 | inconclusive: -33.2% [inhibitor] |
| O=C1NC(c2ccc(O)cc2)Nc2ccccc21 (configuration not stated) | inactive: -4.11% |
| COc1cc(C(=O)NCCOc2cccc3cccnc23)cc(OC)c1OC | inactive: -1.33% |
| Cc1cc(-c2nnc3n2N=C(c2ccccc2)CS3)n[nH]1 | inactive: 10.9% |
| N#Cc1ccccc1S(=O)(=O)N1CCN(C(=O)c2cn(-c3ccccc3)nc2-c2cccnc2)CC1 | inconclusive: -66.4% [inhibitor] |
| Cc1cccc(/C=N/NC(=O)c2cccc(Cl)c2)n1 | inactive: -4.01% |
| COC(=O)[C@@]1(Cc2ccc(OC)cc2)[C@H]2c3cc(C(=O)N4CCCC4)n(CCn4cc([N+](=O)[O-])nc4C)c3C[C@H]2CN1C(=O)c1ccccc1 | active: -82.9% |
| Cc1csc2nc(CNS(=O)(=O)c3ccc4c(c3)CCCC4)cn12 | inactive: -2.16% |
| CCC1CCCCN1Cc1ccc(N)cc1 (configuration not stated) | inconclusive: -30.2% [inhibitor] |
| COc1ccccc1/C=N/N1CCN(c2ccc(Cl)cc2)CC1 | inconclusive: -40.1% [inhibitor] |
| COc1ccc(/C=C/C(=O)OCC(=O)NC(C)CCc2ccccc2)cc1OC (configuration not stated) | inconclusive: -36.2% [inhibitor] |
| C=CCOC(=O)c1sc(NC(=O)c2ccco2)nc1C | inconclusive: -30.5% [inhibitor] |
| Cc1cc(C)c(S(=O)(=O)n2nc(C)c(Br)c2C)c(C)c1 | inconclusive: -33.4% [inhibitor] |
| Cc1ccc(OCCC(=O)OCC(=O)NC(=O)NC2CCCCC2)cc1 | inconclusive: -31.5% [inhibitor] |
| Cc1[nH]c2ccccc2c1C(=O)C(=O)NCC1CCCO1 (configuration not stated) | inconclusive: -35.6% [inhibitor] |

| SMILES | activity change |
| --- | --- |
| CCCCCN1C=CC(=C2C(=O)c3ccccc3C2=O)C=C1 | active: -92.2% |
| Cn1c(SCC(=O)Nc2ccccc2F)nnc1C1CCCCC1 | inconclusive: -32.8% [inhibitor] |
| Cc1ccc(C(=O)CN2C(=O)c3ccccc3S2(=O)=O)cc1 | inconclusive: -30.5% [inhibitor] |
| S=c1[nH]nc(COc2ccccc2)n1/N=C/c1c(Cl)cccc1Cl | inconclusive: -41.8% [inhibitor] |
| C#CCOCCOCCOCCNc1nc(N2CCN(C(=O)[C@H](CCCCN)n3cc([C@@H](N)CC(C)C)nn3)CC2)nc(N2CCN(C(=O)[C@H](Cc3cc4ccccc4[nH]3)n3cc([C@@H](N)Cc4ccc(O)cc4)nn3)CC2)n1 | inactive: 7.27% |
| COc1ccc(C2NC(=O)C(C#N)=C(S)N2c2ccccc2)cc1OC (configuration not stated) | inactive: -7.3% |
| COc1cc(C2C(C(=O)c3cc4ccccc4o3)=C(O)C(=O)N2c2cc(C)on2)cc(OC)c1OC (configuration not stated) | inactive: 8.02% |
| Clc1ccc(-c2cc(-c3ccccn3)on2)c(Cl)c1 | inconclusive: -60.5% [inhibitor] |
| Cc1nc2scc(C)n2c(=O)c1S(=O)(=O)Nc1ccc(OC(F)(F)F)cc1 | inactive: 4.1% |
| Cc1ccc(NC(=O)COC(=O)c2ccc(S(=O)(=O)N3CCCCC3)cc2)cc1 | inactive: 1.56% |
| Cc1ccc(C(=O)Nc2nc3nc(-c4ccccc4)cc(=O)n3[nH]2)cc1 | inconclusive: -32.4% [inhibitor] |
| CCCS(=O)(=O)NCc1cn2cccc(C)c2n1 | inactive: -0.401% |
| O=c1c2c3c(sc2ncn1/N=C/c1ccc([N+](=O)[O-])o1)CCCC3 | inactive: 6.65% |
| O=C(c1cc(-c2ccc3c(c2)OCO3)on1)N1CCOCC1 | inconclusive: -30.4% [inhibitor] |
| O=C(CCNS(=O)(=O)c1ccc(Br)cc1)N1CCN(c2ccccc2O)CC1 | inconclusive: -36.8% [inhibitor] |
| COc1ccc(Cl)cc1Nc1nc(-c2sc(NC(=O)c3ccco3)nc2C)cs1 | inconclusive: -38.6% [inhibitor] |
| CCC(C)NC(=O)C1=C(C)C(=O)OC12CCC(C)CC2 (configuration not stated) | inconclusive: -36.8% [inhibitor] |
| COc1ccc(C(=O)N=c2sc3c(C)ccc(OC)c3n2C)cc1 | inconclusive: -51.5% [inhibitor] |
| CC(C)C(=O)Nc1nc(-c2ccc([N+](=O)[O-])cc2)cs1 | inconclusive: -37.1% [inhibitor] |
| CCN(C(=O)COC(=O)c1cc(S(=O)(=O)N2CCc3ccccc32)ccc1OC)C1CCS(=O)(=O)C1 (configuration not stated) | inconclusive: -50.4% [inhibitor] |
| Cc1ccc(C(=O)N2N=C3c4ccccc4S(=O)(=O)N3[C@H]2N(C)C)cc1 | inconclusive: -32.7% [inhibitor] |
| O=S(=O)(c1ccc(Cl)s1)N1CCN(Cc2ccccc2)CC1 | inconclusive: -31.9% [inhibitor] |
| O=C(Nc1ccc(NC(=O)c2ccc([N+](=O)[O-])o2)cc1Cl)c1ccco1 | active: -92.4% |
| CCOC(=O)C(C)Sc1nnc(-c2c[nH]c3ccccc23)n1C (configuration not stated) | inconclusive: -33.3% [inhibitor] |
| O=C(Nc1ccccc1)c1ccc2c(c1)OCO2 | inconclusive: -30.3% [inhibitor] |
| C=CCOc1ccc(/C=C\c2nc(O)c([N+](=O)[O-])c(=O)[nH]2)cc1OC | inconclusive: -35.3% [inhibitor] |

| SMILES | activity change |
| --- | --- |
| CC1CN(N=Cc2ccc([N+](=O)[O-])o2)C(=N)O1 (configuration not stated) | inconclusive: -78.3% [inhibitor] |
| O=C(NNC1=C(C(=O)C(F)(F)F)CCC1)c1ccncc1 | inconclusive: -30.3% [inhibitor] |
| O=C(Cn1cc(COc2ccc(Br)cc2)nn1)c1ccc(O)cc1 | inactive: 17.1% |
| CCOC(=O)C(=CNc1ccc(Oc2cccnc2)nc1)C(=O)OCC | inconclusive: -32.8% [inhibitor] |
| Cc1ccc(NC(=O)CSc2ccc(-c3cccnc3)nn2)cc1 | inactive: 9.47% |
| O=C(CC1C(=O)NCCN1C(=O)Nc1ccccc1)Nc1cc(Cl)cc(Cl)c1 (configuration not stated) | inactive: 6.19% |
| Cc1cccc(C)c1NC(=O)c1ccc([N+](=O)[O-])s1 | inconclusive: -41.4% [inhibitor] |
| Cc1ccc(C(=O)Nc2c(-c3cccs3)c(=O)c3ccccc3n2C)cc1 | inactive: 4.58% |
| CCOc1cccc(OCCOCCOc2ccccc2C(C)=O)c1 | inactive: 10.2% |
| CC1CCc2c(sc(NC(=O)CCCn3cnc([N+](=O)[O-])n3)c2C(N)=O)C1 (configuration not stated) | inconclusive: -63.9% [inhibitor] |
| Cc1ccnc(NC(=O)c2ccc3c(c2)OCO3)c1 | inconclusive: -57.9% [inhibitor] |
| O=C(Nc1ccc(Cl)cc1)C1CCCN(S(=O)(=O)c2cnc[nH]2)C1 (configuration not stated) | inconclusive: -39.5% [inhibitor] |
| O=C(COC(=O)/C=C/c1ccc(C(F)(F)F)cc1)NCCC1=CCCCC1 | inconclusive: -36.6% [inhibitor] |
| Cc1cc(C)cc(NC(=O)Cn2c(=O)oc3cc(S(=O)(=O)N4CCC(C)CC4)ccc32)c1 | inconclusive: -45.5% [inhibitor] |
| CCCN1CNc2c(c(=O)[nH]c(=S)n2CCc2ccsc2)C1 | inconclusive: -31.8% [inhibitor] |
| O=C1N=c2ccccc2=C1c1sc(=S)n(-c2ccc(O)cc2)c1O | inactive: -12.1% |
| O=C(Nc1ccccc1N1CCOCC1)c1cccnc1Cl | inactive: 3.86% |
| Cc1ccc(NS(=O)(=O)c2ccccc2)c(C)c1 | inactive: 10.6% |
| CCOc1ccc(C(=O)Nc2ccc3c(c2)OCCO3)cc1 | inconclusive: -42.3% [inhibitor] |
| CCOc1ccc(C(=O)Cc2cc3cccc(OC)c3oc2=O)cc1 | inactive: -0.877% |
| CC1CCN(c2ccc(-c3ccc(NC(=O)C(F)(F)F)cc3)nn2)CC1 | inconclusive: -65.4% [inhibitor] |
| CC(Oc1ccc(Cl)cc1Cl)C(=O)NCc1ccncc1 (configuration not stated) | inconclusive: -30.8% [inhibitor] |
| CCOc1ccc(-c2ccc(SC)nn2)cc1 | active: -87.3% |
| Cc1c(C)n(CCc2ccccc2)c2ncnc(NN)c12 | inconclusive: -32.7% [inhibitor] |
| COc1cccc2c1C(CO)N1C(C#N)C3CC(C(=O)O)C(C1C2)N3C (configuration not stated) | inconclusive: -65% [inhibitor] |
